Results on three compounds are retold here after PMC11706625, “Structural and bioinformatics analyses identify deoxydinucleotide-specific nucleases and their association with genomic islands in gram-positive bacteria” (Nucleic Acids Research, 2025).

One experiment addresses T1, OrnPa (Pseudomonas aeruginosa, UniProt P57665).
T1 sequence (P57665 1-180): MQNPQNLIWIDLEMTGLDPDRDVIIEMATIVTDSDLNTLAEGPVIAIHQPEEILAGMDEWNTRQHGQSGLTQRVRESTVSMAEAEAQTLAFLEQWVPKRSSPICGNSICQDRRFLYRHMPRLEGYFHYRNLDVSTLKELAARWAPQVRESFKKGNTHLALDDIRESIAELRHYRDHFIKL
The experiment in a line: 2-aminopurine fluorescence unquenching, initial rates. It is filed as biochemical. The following applies: 20 mM Tris-HCl, 150 mM KCl, MgCl2, pH 7.9, 21 °C.

Another experiment has as its target OrnNoc (Nocardioides alkalitolerans, UniProt Z9Y7C7QGD1). The description is as above.
The next experiment has as its target T2, OrnVc (Vibrio cholerae, UniProt A5F3M7).
T2 construct: gene orn
The experiment is described as above. It is filed as biochemical. The following applies: 20 mM Tris-HCl, 150 mM KCl, MgCl2, pH 7.9, 21 °C.

Experiment [1] addresses T3, NrnCBh (Bartonella henselae, UniProt X5MEI1).
T3 construct: gene BM1374165_00260; full length, His6-SUMO tag cleaved by Ulp1, E. coli; homooctamer
T3 sequence (X5MEI1 1-206): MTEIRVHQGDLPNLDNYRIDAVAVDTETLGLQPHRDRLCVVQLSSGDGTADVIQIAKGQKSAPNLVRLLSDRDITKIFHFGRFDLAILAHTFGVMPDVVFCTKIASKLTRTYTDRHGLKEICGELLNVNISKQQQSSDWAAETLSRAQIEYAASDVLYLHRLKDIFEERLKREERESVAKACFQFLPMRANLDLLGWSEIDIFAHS
The experiment in a line: X-ray crystal structure. It is filed as binding. The following applies: protein:substrate 1:2; active site.

Experiment [2] addresses T3, NrnCBh. The experiment in a line: 2-aminopurine fluorescence unquenching, initial rates. It is filed as biochemical. The conditions noted are these: 20 mM Tris-HCl, 150 mM KCl, MgCl2, pH 7.9, 21 °C.

Each structure is given as a SMILES string.

Consider `Nc1ncc2ncn([C@@H]3O[C@H](COP(=O)(O)O)[C@@H](OP(=O)(O)OC[C@H]4O[C@@H](n5cnc6c(=O)[nH]c(N)nc65)[C@H](O)[C@@H]4O)[C@H]3O)c2n1` [p(2AP)G], for which the kcat/Km entry at OrnPa is “OrnPa, OrnBla, and OrnNoc had a slight bias toward diribonucleotides”; at OrnNoc, “OrnPa, OrnBla, and OrnNoc had a slight bias toward diribonucleotides”; on OrnVc, “OrnVc did not distinguish between RNA and DNA dinucleotides”. `Nc1nc2c(ncn2[C@H]2C[C@H](OP(=O)(O)OC[C@H]3O[C@@H](n4cnc5c(=O)[nH]c(N)nc54)C[C@@H]3O)[C@@H](COP(=O)(O)O)O2)c(=O)[nH]1` [dpGG]: the X-ray crystal structure entry on NrnCBh [1] was “determining the structure of B. henselae NrnC (NrnCBh) bound to dpGG”. For `Nc1ncc2ncn([C@H]3C[C@H](OP(=O)(O)OC[C@H]4O[C@@H](n5cnc6c(=O)[nH]c(N)nc65)C[C@@H]4O)[C@@H](COP(=O)(O)O)O3)c2n1` [p(d2AP)dG], the kcat/Km entry on NrnCBh [2] is “cleaved both RNA and DNA substrates with similar or equal efficiency”.
